Assay results: PubChem BioAssay (NCI)
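Five concentrations, 48 hours, 96-well plates. GI50 = concentration required for 50% inhibition of growth. TGI is the concentration that stops growth completely.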

system: NCI-H322M lung; assay: inhibition of tumour cell growth, NCI panel, 48 h

Row | Compound | TGI [µM] | GI50 [µM]
1 | O=C1N[C@H]2C(=O)c3c(Br)sc(Br)c3[C@H]2O1 | 28.3 | 
2 | CCCCCCCCCCCCCCCCn1cc[n+](C)c1 | 2.55 | 1.23
3 | O=C(O)c1cc2ccccc2c(N=Nc2ccc(S(=O)(=O)Nc3ccccn3)cc2)c1O | > 100 | 
4 | Cc1[nH]c(C(=O)Nc2ccc(C(=O)NCCN)cc2OC(C)C)c(Cl)c1Cl | 2.98 | 1.61
5 | Fc1cc2nc3n(c2cc1F)C(c1c(F)cccc1F)SC3 (stereo unspecified) | > 100 | 
6 | COc1cccc2c1C(=O)c1c(O)c3c(c(O)c1C2=O)C[C@](O)(C(=O)CO)C[C@H]3O[C@@H]1C[C@@H](NC(=O)CCCN(C)C2(c3ccc(F)cc3)CC3CCC2C3)[C@H](O)[C@@H](C)O1 (stereo partly specified) | 14.2 | 6.69
7 | CCOC(=O)C(=[N+]=[N-])C(=O)CSC#N | > 100 | 
8 | COc1cccc(S(=O)(=O)NC2=NCCN2C(=S)SN2CCn3c2nsc3=S)c1 | > 100 | 97.1
9 | CCc1cccc(C(C)C)c1NC(=O)/C(=N\NC(N)=O)C(C(=O)OC)c1cnc2ccccc2n1 (stereo unspecified) | > 100 | 
10 | COc1ccc(Sc2[nH]c(C=O)c3ccccc23)cc1 | 50.6 | 8.14
11 | COC(=O)CN(CC(=O)NCCNC(=O)OC(C)(C)C)C1CCCCC1N(CC(=O)OC)CC(=O)OC (stereo unspecified) | > 100 | 
12 | Cc1cc(Cl)ccc1NC(=O)/C(=N\NC(C)(C)C)C(C#N)c1nc(-c2ccc([N+](=O)[O-])cc2)cs1 (stereo unspecified) | > 100 | 
13 | Nc1nc(Cl)c(N)c(NCC2(CO)CCC(OCc3ccccc3)C2)n1 (stereo unspecified) | > 100 | 
14 | O=C1OC2(c3ccc(O)cc3Oc3cc(O)ccc32)c2cccc3cccc1c23 | > 100 | 25.1
15 | Cn1c(=O)c2c(nc3n2CCCC(=O)N3CCCCl)n(C)c1=O | > 100 | 
16 | CC(=O)NC1=NC(=O)/C(=C/c2ccccc2Cl)N1C | > 100 | 
17 | O=Cc1ccc(-c2ccc(-c3nc4ccccc4s3)cc2)o1 | > 100 | 53
18 | Cc1ccc(S(=O)(=O)C2=Cc3ccccc3C2(O)c2ccccc2)cc1 (stereo unspecified) | 67.5 | 
19 | CCOC(=O)C1CC(=O)C=C2CCCCC21 (stereo unspecified) | > 100 | 
20 | Cc1n[nH]c(=O)n1C1CC1 | > 100 | 
21 | Cc1cc(C)c2c(=O)n(CC(O)CN(Cc3ccccc3)CC(O)Cn3sc4nc(C)cc(C)c4c3=O)sc2n1 (stereo unspecified) | 33.7 | 
22 | CCOc1ccc(-c2nc3ccc(-c4nc5ccc(N6CCN(C)CC6)cc5[nH]4)cc3[nH]2)cc1 | 2.51 | 1.13
23 | COc1ccc(OC2(c3cc(OC)ccc3OC)OC(=O)c3ccccc32)cc1 (stereo unspecified) | > 100 | 
